# The supplement of paper PMC7826260
# The list shows a part of the results. Viral Rep nickase domains cut single-stranded DNA in vitro (1 h at 37 °C, 3 µM enzyme); the outer parts of the 90-letter strands are left off. A value is the log2 ratio of uncut reads to the pool without enzyme; more negative means more cut, near 0 not cut, and no call is made. The scaling is to total reads; where an enzyme cuts many sequences, the uncut ones exceed 0.
# Assays:
# Experiment in all cases: uncleaved DNA left, log2 of reads against the no-enzyme library (log2 ratio); higher = less cleavage (more negative = more Rep cleavage of the k-mer); sequences stand for … in CTCGTCCG…ACCGGAGA
# [1] = system: T1, Rep nickase domain of Muscovy duck circovirus
# T1 sequence (residues 1-111 of Rep, tag left off): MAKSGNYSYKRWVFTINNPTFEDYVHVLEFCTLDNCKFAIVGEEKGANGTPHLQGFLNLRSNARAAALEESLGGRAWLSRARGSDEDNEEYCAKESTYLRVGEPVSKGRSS
# Experimental: (§1)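 A pool of 90-nt single-stranded DNAs with seven random bases just before the constant AC of the nick site (name = the seven bases) was cut by 3 µM recombinant His6-SUMO-tagged Rep nickase domain (300 nM DNA, 50 mM HEPES pH 8.0, 50 mM NaCl, 1 mM MnCl2, 1 h, 37 °C, three replicates). Uncut DNA was amplified and sequenced.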
# [2] = system: T2, Rep nickase domain of banana bunchy top virus
# T2 sequence (residues 1-94 of Rep, tag left off): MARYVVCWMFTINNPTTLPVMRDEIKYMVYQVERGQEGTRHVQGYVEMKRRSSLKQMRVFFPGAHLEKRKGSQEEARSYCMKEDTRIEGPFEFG
# Experimental: as §1
# [3] = system: T3, Rep nickase domain of cabbage leaf curl virus
# T3 sequence (residues 1-116 of Rep, tag left off): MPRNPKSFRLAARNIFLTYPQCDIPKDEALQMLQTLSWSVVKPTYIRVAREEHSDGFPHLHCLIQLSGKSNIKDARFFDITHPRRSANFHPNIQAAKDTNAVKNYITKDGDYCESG
# Experimental: as §1
# [4] = system: T4, Rep nickase domain of chickpea chlorotic dwarf virus
# T4 sequence (residues 1-124 of Rep, tag left off): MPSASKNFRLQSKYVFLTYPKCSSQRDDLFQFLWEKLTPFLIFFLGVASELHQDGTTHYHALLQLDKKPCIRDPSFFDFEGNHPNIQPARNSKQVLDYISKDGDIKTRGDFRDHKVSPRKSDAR
# Experimental: as §1
# [5] = system: T5, Rep nickase domain of faba bean necrotic yellows virus
# T5 sequence (residues 1-98 of Rep, tag left off): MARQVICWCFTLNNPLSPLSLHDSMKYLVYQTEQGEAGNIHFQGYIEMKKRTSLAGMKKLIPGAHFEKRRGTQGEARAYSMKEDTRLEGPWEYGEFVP
# Experimental: as §1
# [6] = system: T6, Rep nickase domain of maize striate mosaic virus
# T6 sequence (residues 1-117 of Rep, tag left off): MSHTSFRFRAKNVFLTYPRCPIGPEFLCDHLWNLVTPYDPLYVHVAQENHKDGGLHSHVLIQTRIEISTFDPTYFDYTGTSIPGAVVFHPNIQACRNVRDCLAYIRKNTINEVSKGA
# Experimental: as §1
# [7] = system: T7, Rep nickase domain of porcine circovirus 2
# T7 sequence (residues 2-116 of Rep, tag left off): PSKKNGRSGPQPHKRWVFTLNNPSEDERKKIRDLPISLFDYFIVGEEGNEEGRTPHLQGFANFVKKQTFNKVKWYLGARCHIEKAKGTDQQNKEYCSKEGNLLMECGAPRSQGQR
# Experimental: as §1
# [8] = system: T8, Rep nickase domain of tomato golden mosaic virus
# T8 sequence (residues 1-124 of Rep, tag left off): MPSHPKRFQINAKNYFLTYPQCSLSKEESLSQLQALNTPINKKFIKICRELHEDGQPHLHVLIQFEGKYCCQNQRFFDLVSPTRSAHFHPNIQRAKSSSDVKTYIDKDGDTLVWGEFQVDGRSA
# Experimental: as §1
# [9] = system: T9, Rep nickase domain of tomato yellow leaf curl virus
# T9 sequence (residues 1-136 of Rep, tag left off): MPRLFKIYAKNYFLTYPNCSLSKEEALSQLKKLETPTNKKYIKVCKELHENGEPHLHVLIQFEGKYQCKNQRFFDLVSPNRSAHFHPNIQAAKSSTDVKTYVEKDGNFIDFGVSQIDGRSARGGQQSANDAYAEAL
# Experimental: as §1
# [10] = system: T10, Rep nickase domain of wheat dwarf virus
# T10 sequence (residues 1-137 of Rep, tag left off): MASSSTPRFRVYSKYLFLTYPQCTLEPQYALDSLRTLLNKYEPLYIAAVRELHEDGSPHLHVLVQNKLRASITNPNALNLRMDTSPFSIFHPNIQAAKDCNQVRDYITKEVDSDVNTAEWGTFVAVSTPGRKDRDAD
# Experimental: as §1
Sequence,uncleaved DNA left (log2) [1],uncleaved DNA left (log2) [2],uncleaved DNA left (log2) [3],uncleaved DNA left (log2) [4],uncleaved DNA left (log2) [5],uncleaved DNA left (log2) [6],uncleaved DNA left (log2) [7],uncleaved DNA left (log2) [8],uncleaved DNA left (log2) [9],uncleaved DNA left (log2) [10]
CGATTCT,-1.77,-0.0185,-0.137,-1.68,-0.0352,-0.579,-1.79,-0.0443,0.0733,-0.0175
CCGGCGT,-0.058,-0.315,-0.814,-0.664,0.116,-0.54,-0.0165,-0.0924,-0.164,-0.219
GCAAGAT,0.107,0.139,0.233,0.653,0.0813,0.78,0.204,0.137,0.0258,0.173
GAGTACT,-2.27,-2.57,-0.0588,-1.36,-2.53,1.68,-3.15,-0.155,0.0558,0.126
TTAAGAA,-0.0913,-0.111,-0.22,-1.26,-0.0416,-0.451,-0.133,-0.0885,-0.119,-0.148
TCAGTAG,0.14,-0.0453,-0.623,-0.523,-0.028,-1.05,0.215,0.0427,0.0543,-0.0438
GATTTTT,-3,-2.83,0.0899,-1.28,-0.113,1.13,-3,-0.102,0.0931,-0.0764
GTTAGAA,0.109,0.143,0.294,0.917,0.113,1.77,0.178,0.119,0.0407,0.11
CTCAGTC,0.0134,0.0842,0.0312,-0.168,0.137,-0.856,0.031,-0.0667,0.0172,-0.0532
TAGAAAC,0.128,0.0984,0.163,-0.31,0.013,-0.427,-0.0633,0.0777,0.0535,0.177
GTGCCCT,-0.0409,0.0833,0.234,0.637,-0.284,1.6,-0.0515,-0.0239,0.0438,0.0447
TTTCGTT,-0.21,-0.287,-0.118,-1.76,-0.0637,-0.932,-1.26,-0.159,-0.137,-0.178
TGGCTTT,0.075,-0.0354,0.5,-0.119,0.09,1.28,-0.0397,-0.047,0.207,0.193
CCGGAAT,0.109,0.0789,0.368,0.93,-0.1,1.32,0.138,0.147,0.055,-0.043
TGGCTAT,0.00535,-0.00557,0.381,0.881,0.0775,1.24,0.11,-0.154,0.107,0.0887
CAAGGTA,0.0375,0.0993,0.294,0.7,0.134,1.22,0.155,0.125,0.0178,0.0513
ACCAAAG,0.0543,0.0717,-0.59,0.525,0.0147,-0.361,0.266,0.17,0.156,0.0668
TCGATGG,0.0187,-0.0915,0.0881,0.452,0.0195,0.349,0.0502,0.121,-0.0677,0.0183
GAATGTA,-0.399,0.195,-0.243,-0.661,0.188,0.543,-1.45,0.0259,0.14,0.0325
CATCAGA,0.13,0.0306,-0.412,-0.695,0.0318,-1.06,0.0794,-0.0489,0.00678,-0.0588
TTGGGGC,-0.0455,-0.0513,0.594,1.3,-0.0622,1.61,0.0998,-0.022,-0.116,-0.1
CACATCA,0.0507,0.133,0.00574,-1.77,0.0459,-0.412,0.105,0.0388,0.122,0.0837
GCGTTTG,-0.0958,-0.0173,-0.132,0.14,-0.0645,0.431,-0.0294,-0.103,-0.0462,-0.138
GGTGCAG,-0.0997,-0.0759,0.636,1.5,-0.0596,1.73,0.104,-0.091,-0.123,0.0573
CACTGGT,-0.557,-0.753,-0.25,-0.274,-0.218,0.0698,-3.38,-0.29,-0.0485,-0.175
GATGCAG,-0.0681,-0.0961,-0.602,-0.408,-0.00838,-0.899,-0.0119,-0.00551,0.0441,-0.0441
CTTCAAT,0.102,0.0737,-0.0699,-0.647,0.0432,-0.597,-0.213,-0.0548,-0.0141,-0.0541
GCCAGAG,0.085,0.0893,-0.317,-0.0717,0.0203,-0.704,0.255,0.148,0.027,-0.0101
ATTATCG,-0.000625,-0.084,-0.908,-0.143,-0.117,-1.22,0.0886,0.0424,0.0465,-0.109
TCATGGC,-0.0978,-0.048,-0.674,-0.776,-0.00508,-1.09,0.189,0.000502,0.109,-0.145
